# Over roughly 33,000 sequences, “E-score (-0.5 to 0.5)” has its median near -0.021; the highest 2% begin near 0.32. This is one part of the list.
# Molecular target: T1, Zap1 (UniProt P47043)
# T1 sequence: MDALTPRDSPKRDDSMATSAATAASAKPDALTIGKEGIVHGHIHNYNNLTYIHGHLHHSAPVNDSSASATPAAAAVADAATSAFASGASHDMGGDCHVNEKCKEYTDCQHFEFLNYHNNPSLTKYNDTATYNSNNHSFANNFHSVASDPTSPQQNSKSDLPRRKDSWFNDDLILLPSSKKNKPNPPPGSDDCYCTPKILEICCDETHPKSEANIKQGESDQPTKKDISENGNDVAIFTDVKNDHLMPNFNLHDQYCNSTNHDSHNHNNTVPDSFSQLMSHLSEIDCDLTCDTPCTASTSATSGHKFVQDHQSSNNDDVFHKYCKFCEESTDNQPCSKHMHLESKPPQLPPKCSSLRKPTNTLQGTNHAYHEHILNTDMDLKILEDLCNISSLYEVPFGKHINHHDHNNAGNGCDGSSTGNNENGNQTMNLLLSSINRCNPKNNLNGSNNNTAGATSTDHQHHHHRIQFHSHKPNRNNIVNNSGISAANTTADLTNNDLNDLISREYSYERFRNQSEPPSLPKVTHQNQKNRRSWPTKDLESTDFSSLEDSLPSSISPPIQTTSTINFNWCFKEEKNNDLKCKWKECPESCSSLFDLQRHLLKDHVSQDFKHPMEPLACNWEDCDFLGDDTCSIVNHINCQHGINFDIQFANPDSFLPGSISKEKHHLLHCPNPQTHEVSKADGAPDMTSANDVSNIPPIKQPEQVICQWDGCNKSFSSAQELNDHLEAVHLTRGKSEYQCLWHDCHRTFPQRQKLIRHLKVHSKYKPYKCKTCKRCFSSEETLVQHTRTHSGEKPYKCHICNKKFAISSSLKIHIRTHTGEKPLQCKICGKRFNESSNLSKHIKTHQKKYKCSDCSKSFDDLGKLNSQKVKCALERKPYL
# Assay: PBM E-score (8-mer binding enrichment) (E-score (-0.5 to 0.5)); higher = stronger / more preferred TF binding; most listed sequences are background and not binding sites
# Settings: protein concentration: 200 nM; construct: GST-full length
# Procedure: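 Universal 'all 10-mer' protein binding microarrays (Agilent AMADID 015681) probed with GST-tagged S. cerevisiae TFs (full-length or DBD) made by in vitro transcription/translation (PURExpress), about 100-200 nM. Bound TF was detected with fluorescent anti-GST. Each ungapped 8-mer (which stands for itself and its reverse complement) is scored by the PBM enrichment score (E-score), a modified Wilcoxon-Mann-Whitney statistic from -0.5 to +0.5, computed with the Universal PBM Analysis Suite. Scale: above 0.35 generally sequence-specific binding.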
row,Sequence,PBM E-score
1,GGGGTACA,0.249
2,ACAATACC,0.252
3,CCTCAGAC,0.0503
4,CCAAATCG,-0.113
5,ATATCTGC,-0.0972
6,ACGATAAA,-0.04
7,ACGTCCCT,-0.0863
8,AGAGGCTG,-0.0528
9,AAAGTAGG,-0.0759
10,ACATGTAA,0.153
11,AACTCTCT,-0.00923
12,GCCTTGGA,-0.11
13,GTTGACTA,-0.0663
14,ACTGCCCG,-0.227
15,TAGGCCCA,-0.142
16,CTCAAACA,0.129
17,ACGACAAC,0.04
18,ATGTGAAC,-0.0742
19,AGCGCTTA,-0.0924
20,TAAATTAA,0.177
21,ATTGCACC,0.0965
22,CCTTGATA,0.199
23,ATATTAAT,0.0943
24,GGCGCTTA,-0.289
25,ATCTAGCA,-0.0478

row,Sequence,PBM E-score
1,CACCATTA,0.037
2,ACTGCTTA,-0.14
3,CATCTCGG,0.0732
4,ATATGACG,-0.122
5,ACCACAGA,0.173
6,AAATCGTC,-0.148
7,AGAGCCAG,-0.335
8,AACCACCA,0.273
9,AACGCTTC,-0.128
10,CTAAAGAA,0.115
11,ACCGCGGG,0.291
12,AGCCGCAT,-0.179
13,ACATACTA,0.0795
14,CTCTAGAC,-0.212
15,ATGAAAAG,-0.0902
16,CAGAAATA,0.144
17,AACGGCAC,-0.184
18,CTCCGAAG,-0.0454
19,GAGCTCGA,-0.0262
20,ATGCCCTC,-0.214
21,CTACAGAA,0.11
22,CCTTTGTC,0.0506
23,ATCATCGC,-0.0946
24,CCCTTGTA,-0.0158
25,GTGATTTA,0.193

row,Sequence,PBM E-score
1,TAGGCACA,-0.0742
2,CAGAGATC,-0.134
3,TCCGGGAA,0.0362
4,AATTTTTG,0.178
5,AATCGTGG,0.0842
6,CCCTCACG,0.13
7,AAAAGGAG,-0.254
8,GGGTTGAC,0.131
9,GCATGCCC,-0.119
10,ATCCAGTA,-0.0817
11,AGACGACG,-0.226
12,TGAGGACA,0.0682
13,AAGCACGG,-0.11
14,AAGTCAAA,0.173
15,GCTCGCAC,-0.205
16,CGGCCGGA,0.03
17,TCTAACCA,0.231
18,CCTACAGC,-0.105
19,AAACATTA,-0.0997
20,CCCACAGG,0.0454
21,CCGCTTAG,-0.184
22,TACGCATA,-0.0829
23,TATCGAAA,0.242
24,CTTGTCGC,-0.063
25,ACTGAGAT,-0.201

row,Sequence,PBM E-score
1,AACTAAAG,0.212
2,AGGGAACA,-0.152
3,AAATATGG,0.0312
4,CTTGGGCC,-0.0386
5,ATCAAGGG,0.161
6,GTATCAAC,0.0391
7,CAGGATTA,-0.0924
8,CGAGCACC,-0.0114
9,ACGACGAT,0.0497
10,CAGAGATG,-0.0673
11,CATCTTCA,-0.148
12,CCTGACTC,0.0283
13,GCCCATCA,-0.0776
14,AGACCTTC,0.184
15,AACTGAAA,0.139
16,CCCAAGAC,-0.045
17,CTCTCGCA,-0.105
18,GCGCCCGC,-0.234
19,GCGATCCC,-0.0725
20,TCAATTGA,0.00911
21,GCAAGAAC,0.0646
22,CATCGGTC,0.0918
23,CCAGCGCG,0.00858
24,TATACGAA,0.0189
25,GGCCAACC,-0.0222

row,Sequence,PBM E-score
1,ACACTCCT,-0.0481
2,AATGATAA,0.2
3,AATTCCAC,0.171
4,ATGGGGCG,-0.129
5,TCTGGCCA,-0.0183
6,ATCGACGC,-0.0892
7,AGAACTGA,0.0589
8,CCTTAGCA,0.162
9,GCGATACC,0.158
10,GGCCAGAC,-0.0773
11,GCGGTTGA,0.149
12,GGATTAAA,0.135
13,ATTTAGTA,0.167
14,AAACGTAT,-0.00708
15,GCGCAAAA,0.0381
16,AAATGTGG,-0.0928
17,ACTGGCAA,0.0202
18,ACCGTAAA,0.293
19,AAGTTCAT,0.0784
20,CACGTTGC,-0.298
21,AGGGAGTA,-0.0625
22,GGACCCCC,-0.177
23,GAGCGCGC,-0.0746
24,AGGTCGAC,0.135
25,AGGCGGCC,0.0585

row,Sequence,PBM E-score
1,AGACCACC,0.0702
2,ACTTGCAC,-0.141
3,AGCGCGGA,-0.00104
4,CTTTGCCC,-0.0577
5,ACGCACTA,-0.161
6,AGACCCCC,-0.233
7,ATCTATTA,0.0199
8,CCCCTGAA,0.127
9,ATGTATGG,-0.0638
10,CATCCAAG,-0.073
11,GCTAGTTA,-0.0737
12,AAGGGTAG,0.375
13,AGCACGAT,-0.00084
14,CCTTCAAG,0.292
15,CAACTCAC,-0.00774
16,GCAGAATA,0.122
17,ACGAGCCC,-0.0869
18,ATACCGAA,0.0855
19,AGGATATG,0.0277
20,ATTCTATG,0.0807
21,TGAACAAA,0.161
22,CAGTCTGG,-0.16
23,ATACGGGC,-0.134
24,ATGTTCAA,-0.0107
25,CGTGGTTA,0.348

row,Sequence,PBM E-score
1,CGAAAGCC,-0.12
2,CCGCCTTA,-0.127
3,CCGCACGG,-0.114
4,ACAATGCA,0.0982
5,CAGGTTGG,0.0671
6,AGTACTAA,0.134
7,AAGTTCCT,0.0163
8,AGTCCGTC,-0.034
9,AAGACACG,-0.18
10,AGATTCCA,0.0253
11,ACGATGCA,0.026
12,ATAGTAGA,0.118
13,ACTGTTGA,-0.123
14,AGTATCTG,-0.114
15,TATATGAA,0.181
16,GAGGTATA,0.233
17,AAGCCGAC,-0.159
18,AGGCCCAC,-0.14
19,AACTTGGA,0.0986
20,CCACCTCC,-0.104
21,ACTTCCGA,0.0305
22,GAATACGC,-0.176

# Source: the supplement of paper PMC3334620
